# Measured values as given in publication PMC4336329 (PLoS ONE, 2015).
# Screen size: about 310,000 compounds; about 14,000 (4.5%) showed an effect of 50% or more. The effect is printed as a negative number. The list shows a part of the results.
# Target: human ether-à-go-go-related gene (hERG) potassium channel (human, UniProt Q12809)
# Test: primary screen, population patch clamp on CHO cells stably expressing hERG
# 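Further: peak tail current of the secondary pulse compared with the same well before compound.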
# human ether-à-go-go-related gene (hERG) potassium channel, sequence (Q12809 whole entry, looked up): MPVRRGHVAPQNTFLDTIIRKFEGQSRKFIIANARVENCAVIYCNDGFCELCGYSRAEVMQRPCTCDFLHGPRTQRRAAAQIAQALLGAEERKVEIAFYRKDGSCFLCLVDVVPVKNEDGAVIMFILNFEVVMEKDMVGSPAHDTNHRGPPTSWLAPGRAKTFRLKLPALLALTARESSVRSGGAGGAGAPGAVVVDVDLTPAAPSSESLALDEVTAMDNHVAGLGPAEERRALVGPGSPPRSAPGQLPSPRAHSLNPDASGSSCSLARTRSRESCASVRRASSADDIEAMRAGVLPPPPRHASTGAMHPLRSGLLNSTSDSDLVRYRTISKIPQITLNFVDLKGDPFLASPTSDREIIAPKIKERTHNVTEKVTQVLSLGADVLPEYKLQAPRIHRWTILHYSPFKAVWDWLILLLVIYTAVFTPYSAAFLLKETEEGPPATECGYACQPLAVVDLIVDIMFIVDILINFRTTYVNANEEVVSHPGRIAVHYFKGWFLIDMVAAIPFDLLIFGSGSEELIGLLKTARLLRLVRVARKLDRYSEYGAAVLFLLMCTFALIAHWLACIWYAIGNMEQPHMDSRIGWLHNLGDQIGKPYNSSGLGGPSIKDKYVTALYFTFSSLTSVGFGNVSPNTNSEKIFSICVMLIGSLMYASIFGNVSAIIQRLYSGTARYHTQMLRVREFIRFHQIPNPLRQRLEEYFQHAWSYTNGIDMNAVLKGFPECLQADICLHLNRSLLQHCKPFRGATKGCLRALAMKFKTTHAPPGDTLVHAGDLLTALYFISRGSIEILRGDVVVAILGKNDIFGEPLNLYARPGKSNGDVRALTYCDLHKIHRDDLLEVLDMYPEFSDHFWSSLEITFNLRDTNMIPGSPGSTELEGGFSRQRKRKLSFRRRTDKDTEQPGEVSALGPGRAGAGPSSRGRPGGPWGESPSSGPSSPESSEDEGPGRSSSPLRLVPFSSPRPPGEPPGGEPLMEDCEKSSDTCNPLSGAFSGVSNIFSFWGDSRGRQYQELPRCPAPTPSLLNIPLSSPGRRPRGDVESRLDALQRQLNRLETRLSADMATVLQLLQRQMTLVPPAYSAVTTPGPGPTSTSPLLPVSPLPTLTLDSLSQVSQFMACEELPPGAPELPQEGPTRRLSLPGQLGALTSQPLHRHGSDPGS
row,SMILES,"hERG current change (%, negative = inhibition) at 10uM [%]"
1,CCN(CC(=O)Nc1ccccc1C(F)(F)F)C(=O)CCSc1ccc(F)cc1,8.81
2,Cc1ccc(NC(=O)Cc2nnc(N)s2)cc1,11.1
3,CCc1nnc(NS(=O)(=O)c2ccc(NC(=S)NC(=O)/C=C/c3ccccc3)cc2)s1,13.5
4,O=C(CSc1nnc(-c2ccc3c(c2)OCCO3)o1)NC1CCCCC1,-3.07
5,Cc1ccc(N2C(=O)c3cccc4c(N)ccc(c34)C2=O)c2cccnc12,2.79
6,O=C(NCCc1nc2ccc(Cl)cc2[nH]1)C1CCC(=O)N(Cc2cccc(F)c2)C1 (stereo not drawn),-18.3
7,COc1ccc(CCNC(=O)C2CCCN2C(=O)NC2CCCCC2)cc1OC (stereo not drawn),12
8,O=C(Nc1ccc2c(c1)OCO2)NC1CCN(Cc2ccccc2)CC1,-24.8
9,O=S(=O)(Nc1cccc(C(F)(F)F)c1)c1cnc[nH]1,15
10,CCOC(=O)c1ccc(NC(=O)CN2C(=O)C(C)SC(C)C2=O)cc1 (stereo not drawn),8.95
11,Cc1nc(SCC(=O)NC(=O)NC(C)(C)C)nc(C)c1C,-8.95
12,CC1(C)CC(=O)c2cc(C(=O)N3CCCC(C)(C)C3)c(=O)n(-c3ccccc3)c2C1,11.5
13,CCCCCCN=CC1=C(O)CC(C)(C)CC1=O,6.13
14,CON(C)c1nc(OCCNC(=O)OCc2ccc(Cl)cc2C)nc(N(C)C)n1,-17.8
15,Cc1ccc(C)c(N2CCN(c3ccc4cc(S(=O)(=O)N5CCCCC5)ccc4n3)CC2)c1,17.1
16,COC(CNC(=O)CN1CCN(Cc2ccccc2F)C1=O)OC,21
17,CC(OC(=O)c1cc[n+]([O-])cc1)C(=O)Nc1ccc(Cl)cn1 (stereo not drawn),-2.36
18,Cc1ccc(O)c(C=Nc2cc(C)ccc2O)c1,-8.79
19,COc1cc2c(cc1OC)C(C(=O)NCCN1CCOCC1)C1c3ccccc3CCN1C2=O (stereo not drawn),0.0223
20,COc1ccccc1Cn1c(=S)[nH]c2cc(C(=O)N3CCN(c4ccccc4OC)CC3)ccc2c1=O,15.5
21,N#Cc1c2ccc(OCC(=O)NCc3ccco3)cc2n2ccccc12,14.8
22,CCC(C)NC(=O)CN(c1cc(C)ccc1OC)S(C)(=O)=O (stereo not drawn),9.9
23,CN1C(C(=O)Nc2ccc(C(=O)O)cc2)=C(O)c2ccccc2S1(=O)=O,9.97

row,SMILES,"hERG current change (%, negative = inhibition) at 10uM [%]"
1,Cc1ccc(NC(=O)c2cncc(Br)c2)c(O)c1,8.03
2,COc1ccc2oc(/C=C/N(C)C)c(C(=O)c3ccc(Cl)cc3)c2c1,4.89
3,COc1ccc(CC(=O)NC2CCN(CC(=O)N3CCCc4ccccc43)CC2)cc1OC.Cl,-6.4
4,COc1ccc(S(=O)(=O)N2CCC(C(=O)N3CCN(C)CC3)CC2)cc1Cl,4.71
5,Cc1cnc(C(=O)Nc2ccc(N3CCN(C(=O)OC(C)(C)C)CC3)cc2)cn1,14.1
6,COc1ccc(CCNC(=O)c2cc(S(=O)(=O)N3CCCC3)cn2C)cc1OC,2.46
7,Cc1ccc(NC(=S)N2CCCCC2CO)cc1C (stereo not drawn),6.38
8,CC1CN2C(c3ccc([N+](=O)[O-])cc3)=CSC2=N1 (stereo not drawn),-31
9,CC(C)C(=O)Nc1nnc(SCC(=O)NCc2cccs2)s1,1.65
10,Cc1ccc(N(CC(=O)Nc2ccc3c(c2)OCCO3)S(=O)(=O)c2c(C)n[nH]c2C)cc1,-2.86
11,c1cc2ccc3ccc(-n4cnnn4)c4ccc(c1)c2c34,-12.8
12,O=C(c1cccc(F)c1)N1CCCc2ccccc21,9.91
13,O=c1[nH]c(C2CCN(S(=O)(=O)c3cccc([N+](=O)[O-])c3)CC2)nc2c1nnn2Cc1ccccc1,14.6
14,COC(=O)C(O)(c1c[nH]c2ccccc12)C(F)(F)F (stereo not drawn),-4.25
15,COc1ccc2c(C)c(C)c(=O)oc2c1OC,3.4
16,CCCN(CC1CC1)c1nc(C)nc(Nc2c(Cl)cc(Cl)cc2Cl)c1Cl,-2.65
17,O=C1CC(N2CCN(c3ccc(O)cc3)CC2)C(=O)N1c1ccc2c(c1)OCO2 (stereo not drawn),0.244
18,CCOC(=O)C1CCN(S(=O)(=O)CCNC(=O)c2ccc(F)cc2)CC1,-35.9
19,O=c1[nH]c(CN2CC=C(c3ccccc3)CC2)nc2scc(-c3cccs3)c12,17.5
20,CC(=O)N1N=C2C3CCN(CC3)C2C1c1ccc(C)cc1 (stereo not drawn),18.6
21,Cc1ccc2c(CSc3nnnn3C)cc(=O)oc2c1,-42.4
22,CN(C)/C=C(\C#N)C(=O)Nc1ccc(F)cc1,2.4
23,CC(=O)C[C@@H](O)CC(=O)[C@H]1OC(=O)CC/C=C\Cc2ccccc21,14.4

row,SMILES,"hERG current change (%, negative = inhibition) at 10uM [%]"
1,Cl.O=C(Nc1ncccc1Cl)c1cccc(F)c1,2.94
2,Cc1ccc(O)c(NC(=S)NC(=O)/C=C/c2ccco2)c1,-4.5
3,COc1ccc(C2C(C#N)=C(N)Oc3c2c(=O)oc2ccccc32)cc1Cn1cc([N+](=O)[O-])cn1 (stereo not drawn),-4.41
4,COc1cccc(Nc2nc(-c3ccc(O)cc3)cs2)c1,13.1
5,O=C(Cc1cc(=O)[nH][nH]1)N/N=C/C(Cl)=C/c1ccccc1,4.46
6,Cc1ccc(NC(=S)N2CCC(NC(=O)c3ccc(C)cc3)CC2)cc1,4.09
7,C/C(=N/NC(=O)CNC(=O)c1cccc(F)c1)c1ccc2c(c1)CCCC2,12.4
8,CCOC(=O)c1c(C=O)c(C)n(Cc2ccc(Cl)cc2)c1C,-18.8
9,O=C(CCSc1ccccc1)Nc1ccc(S(=O)(=O)Nc2ncccn2)cc1,17.3
10,CC(NC(=O)C(Cc1ccccc1)n1cccc1)c1ccccc1 (stereo not drawn),3.04
11,Cc1cc(NC(=O)NC(=O)c2ccccc2)no1,23.1
12,O=C(OCC(=O)c1ccccc1Cl)c1cnccn1,-0.611
13,O=C(O)CSC(=S)N1CC2CC(C1)c1cccc(=O)n1C2 (stereo not drawn),13.2
14,CCOc1ccc(CN2CCN(CC3CC3)CC2CCO)cc1 (stereo not drawn),-67.1
15,COCCSc1ccccc1C(=O)Nc1nnc(COC)s1,-2.63
16,Cc1cn(C(=O)c2cccc(Br)c2)c(C)n1,15
17,COCCNC(=O)CSc1nc2ccccc2c(=O)n1CCC(=O)N1CCN(c2ccccc2)CC1,-35
18,COc1ccc(C(=O)c2sc(Nc3ccc(NC(C)=O)cc3)nc2C)cc1,9.79
19,CC(=O)Nc1cccc(OCc2ccc(F)cc2)c1,-12
20,CN(C)CCNc1oc(/C=C/c2ccccc2)nc1C#N,-29.2
21,Cc1ccsc1C1Nc2ccccc2-c2nc3ccccc3n21 (stereo not drawn),0.903
22,CN(C(=O)c1nc(-c2ccccc2)n(-c2ccccc2)n1)C1CCS(=O)(=O)C1 (stereo not drawn),7.86
23,O=C(COC(=O)[C@H](Cc1ccccc1)NS(=O)(=O)c1ccccc1F)NC1CCCCC1,-40.4

row,SMILES,"hERG current change (%, negative = inhibition) at 10uM [%]"
1,COc1ccccc1CNC(=O)C1CSC2(C)CCC(=O)N12 (stereo not drawn),1.63
2,O=C(O)C[C@H]1c2ccccc2S(=O)(=O)N1c1ccccc1,16.5
3,CC(C)COC(=O)n1c(SCC(=O)N(C)C)nc2ccccc21,-7.64
4,C#CCOC(=O)Nc1cc(C)n(-c2ccccc2)n1,5.38
5,C/C(=N\Nc1cc(N2CCOCC2)ncn1)c1ccccc1,-19
6,CC(=O)/C(N=Nc1c(C)n(C)n(-c2ccccc2)c1=O)=C(\C)O,20.6
7,Cn1c(SCC(=O)c2ccc(O)c(O)c2)nnc1-c1cccs1,14.5
8,COc1ccc(-c2occ(C(=O)O)c2C(=O)O)cc1,-3.07
9,CN(C(=O)CN1CCC(NC(=O)C2CCCCC2)CC1)C1CCCCC1.Cl,1.84
10,CCN(CC)S(=O)(=O)c1cc(C(=O)Oc2cccc(-c3cnc4ccccc4n3)c2)ccc1Br,21.8
11,O=C(c1nc2ccccn2c1CNCCCn1ncc2ccccc21)N1CCCC1,-37.7
12,O=C(CCCn1c(=O)[nH]c2ccccc2c1=O)NC1CCCCCC1,-9.14
13,N#CC1(c2ccccc2)CCN(C2CC(=O)N(c3ccc(F)cc3)C2=O)CC1 (stereo not drawn),11
14,COC(Cn1c(C)c(C(C)=O)c(C(C)=O)c1C)OC,6
15,Cn1c(SCC(=O)Nc2cccc(F)c2)nnc1-c1cccnc1,-33.1
16,CC(C)OCCCNC(=O)C1CCC(CNS(=O)(=O)c2cccc3nsnc23)CC1 (stereo not drawn),-10.9
17,CNc1ccc(C(=O)c2ccccc2C(=O)O)cc1[N+](=O)[O-],33.8
18,Cc1cccc(-c2noc(CCCC(=O)Nc3cccnc3)n2)c1,-11.6
19,CCC1CCCCN1CCCNC(=O)c1ccc2nc(N3CCCCC3)sc2c1 (stereo not drawn),-34
20,O=[N+]([O-])c1ccc(C2CN=C(Nc3ccccc3)S2)cc1 (stereo not drawn),-60.2
21,CCOC(=O)C1CCN(c2nc(C)cc(C)c2C#N)CC1,-3.93
